Experimental data taken from PubChem BioAssay AID686971 (National Center for Advancing Translational Sciences (NCATS), 2013).
In all, about 360,000 compounds went through this assay and about 7,500 (2.1%) were called active. The inconclusive results got no clear call from the source; some entries with a clear call stand among them for comparison. Calls follow the shape of the dose curve; as a rule, active = well fitted cell-killing curve with a large enough effect; inconclusive = small, poorly fitted or top-dose-only effect, or effect the other way, or another doubt; inactive = no such curve, though single readings can be large or run the other way. No potency is given beside an inconclusive call; the fits are too rough.

Test: qHTS for induction of synthetic lethality in tumor cells producing 2HG: qHTS for the HT-1080-IDH1KD cell line;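 as to activity, negative = toxicity: 0% = DMSO wells and -100% = cell-free medium wells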
Conditions: HT-1080 IDH1 knockdown viability, ATP luminescence, 48 h; activity, negative = toxicity: at 46.1 µM (top of the series) unless noted
Summary of the method: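 Using the IDH1-knockdown HT-1080 line run in the same batch and compound series as the NT line, viability after 48 h at 37 °C was determined by CellTiter-Glo luminescence and expressed as % activity.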
Potency is read from the fitted curve at half-maximal effect; tags tell the direction and shape of the fitted curve.

Compound | Potency | activity, negative = toxicity
Cc1cc(N/N=C/c2ccc(O)c(C)c2O)nc(-c2ccccc2O)n1 | inconclusive [cytotoxic, single point] | 
CCOC(=O)c1c(-c2ccc(OC)cc2)oc2ccc(OCC(N)=O)cc12 | inconclusive [cytotoxic, single point] | 
COc1ccc(N2C(=O)CC(Sc3ncn[nH]3)C2=O)c(OC)c1 (stereo unspecified) | active: 10 µM | 
C=CCN(CC=C)C(=O)C(=O)c1ccn(-c2c(C)csc2C(=O)OC)c1 | inactive | 
O=C(CCl)N(c1ccccc1)C1CCCCC1 | active: 3.26 µM | 
Cc1ccc(Cn2ccc(NC(=O)c3nn(C)cc3[N+](=O)[O-])n2)cc1 | inconclusive [cytotoxic, partial curve] | 
O=C(N/N=C/c1ccc([N+](=O)[O-])s1)c1cccc(Br)c1 | active: 20.6 µM | 
COc1ccc(N/C=C/C(=O)c2cc(OC)c(OC)c(OC)c2)cc1 | active: 1.3 µM | 
O=C(NCc1ccncc1)c1ccc(-c2ccc(F)c(F)c2)c2ccoc12 | inconclusive [cytotoxic, partial curve] | 
OC(CNCc1ccc(-c2ccccc2)cc1)c1ccccc1 (stereo unspecified) | active: 29.1 µM | 
Oc1ccc(CN2CCC(Cc3ccccc3)CC2)c2cccnc12 | active: 5.8 µM | 
CCOc1ccc(N(C)S(=O)(=O)c2cc(-c3cc(C)no3)ccc2C)cc1 | inconclusive [cytotoxic, single point] | 
COC(=O)CCC(C)C1CCC2C3CCC4CC(O)CCC4(C)C3CC(O)C12C (stereo unspecified) | inconclusive [cytotoxic, single point] | 
Cc1ccc(C(=O)CC(=O)c2cccc(F)c2)c(O)c1 | inconclusive [cytotoxic, single point] | 
COc1cc(N/N=C/c2ccc(N(C)C)cc2)ncn1 | inactive | 
CCOC(=O)Cn1c2ccccc2n2nc(CCC(=O)O)c(=O)nc12 | inconclusive [rising, single point] | 
O=[N+]([O-])c1cc(C(F)(F)F)ccc1NCCc1c[nH]c2ccc(O)cc12 | active: 12.6 µM | 
COc1ccc(C(=O)/C=C/Nc2cc(C)ccn2)cc1 | inconclusive [cytotoxic, single point] | 
COc1ccc2cc(-c3[nH]ncc3CN3CCCC3c3nonc3C)ccc2c1 (stereo unspecified) | inconclusive [cytotoxic, single point] | 
COc1ccc(CN2CCC(C(=O)Nc3ccc(Oc4cccnc4)cc3)CC2)cc1 | inactive | 
CCc1nc2ccc(C(=O)NCCCN3CCN(c4ccc(F)cc4)CC3)cc2nc1CC | inconclusive [cytotoxic, partial curve] | 
CCOC(=O)NCCc1c(C)nc2c(c(C)nn2C(C)(C)C)c1C | inconclusive [cytotoxic, single point] | 
Cc1ccc2c(c1)/C(=C/c1ccc(F)cc1)C(=O)N2 | inconclusive [cytotoxic, single point] | 

Compound | Potency | activity, negative = toxicity
COc1cc(CNC(C)(C)C)cc(Br)c1OCc1cccs1 | inconclusive [cytotoxic, single point] | 
COCCNc1nc(NCc2cc(-c3ccc(OC)cc3)no2)c2sccc2n1 | active: 13 µM | 
c1ccc2c(C3=NNC(=NC4CCCCC4)SC3)c[nH]c2c1 | inconclusive [cytotoxic, single point] | 
CCCCc1c(O)nc(SCC(=O)c2ccccc2)[nH]c1=O |  | inconclusive: -33.3% [cytotoxic]
O=C(c1ccccc1)c1ccc(-c2ccc(O)cc2)cc1 | inconclusive [cytotoxic, single point] | 
Cc1ccc(C(=O)CSc2nc3cc(S(=O)(=O)N4CCOCC4)ccc3o2)cc1 | inactive | 
CC1=C(c2ccccc2)C(=S)NC(C)(C)C1 | active: 32.6 µM | 
Cc1ccc(OCC(=O)OCc2nc3scc(-c4ccccc4)c3c(=O)[nH]2)cc1C | inactive | 
Nc1ccccc1C(=O)NC1CCCNC1=O (stereo unspecified) | inactive | 
CC1CCN(C(=O)COC(=O)/C=C/c2ccc([N+](=O)[O-])cc2)CC1 |  | inconclusive: -15.4% [cytotoxic]
CCCCCc1ccc(C(=O)CCCC)c(=S)[nH]1 | inconclusive [cytotoxic, single point] | 
CC(=O)Nc1cccc(-c2ccnc3c2CC(C(=O)Nc2cccc(OC(F)(F)F)c2)O3)c1 (stereo unspecified) | inconclusive [cytotoxic, single point] | 
Cc1c(N)cc[n+](CC(=O)c2ccccc2)c1C | inconclusive [cytotoxic, single point] | 
Cn1c(=O)c2c3c(sc2n2c(SCC(N)=O)nnc12)CC(C(C)(C)C)CC3 (stereo unspecified) | inconclusive [cytotoxic, single point] | 
CCOc1ccccc1CNC(=O)CCC(=O)N1Cc2ccccc2Oc2ncccc21 | inactive | 
CN(C)CCCN(C(=O)c1ccc(S(=O)(=O)N(C)Cc2ccccc2)cc1)c1nc2cc3c(cc2s1)OCO3 | inconclusive [cytotoxic, single point] | 
O=C(C1CCN(S(=O)(=O)c2cccnc2)CC1)N1CCN(c2ccc(Cl)cc2)CC1 | inconclusive [cytotoxic, single point] | 
COc1ccc2c(c1)[C@H]1[C@H](CO2)[C@H](c2ccccc2)[C@@]2(C)C(=O)N[C@H](C)C(=O)N12 | inactive | 
Cc1oc(=O)c(NC(=O)c2ccc(Cl)cc2)cc1C(=O)c1ccccc1 | inconclusive [cytotoxic, single point] | 
CC(C)C1C(=O)N(Cc2cn(CCC3OCCO3)nn2)CCS(=O)(=O)N1Cc1ccc(-c2cccc(CO)c2)cc1 (stereo unspecified) | inactive | 
CCc1nc2ccc(C(=O)Nc3cccc(OC)c3)cn2c1N(CC)Cc1cccc(Br)c1 | inconclusive [cytotoxic, single point] | 
CCOc1cc(C=NN=C2c3ccccc3-c3ccccc32)ccc1O |  | inconclusive: -51.4%
O=C(NC(=S)NNC(=O)[C@H]1C[C@@H]1c1ccccc1)c1ccc(F)cc1 | inconclusive [cytotoxic, partial curve] | 
